Values joined by “and” are separate entries in the source; they are usually repeats but may differ in a detail not shown here. Equal entries are not always repeated. In all, about 270,000 compounds went through this assay and about 5,800 (2.1%) were called active. The inconclusive results got no clear call from the source; some entries with a clear call stand among them for comparison. Calls follow the shape of the dose curve; as a rule, active = well fitted inhibition curve with a large enough effect; inconclusive = small, poorly fitted or top-dose-only effect; inactive = flat fitted curve, though single readings scatter. Where the call is inconclusive, the potency comes from a doubtful curve fit.
Target: Microtubule-associated protein tau (Homo sapiens) (UniProt P10636)
UniProt P10636, sequence (P10636 whole entry, looked up): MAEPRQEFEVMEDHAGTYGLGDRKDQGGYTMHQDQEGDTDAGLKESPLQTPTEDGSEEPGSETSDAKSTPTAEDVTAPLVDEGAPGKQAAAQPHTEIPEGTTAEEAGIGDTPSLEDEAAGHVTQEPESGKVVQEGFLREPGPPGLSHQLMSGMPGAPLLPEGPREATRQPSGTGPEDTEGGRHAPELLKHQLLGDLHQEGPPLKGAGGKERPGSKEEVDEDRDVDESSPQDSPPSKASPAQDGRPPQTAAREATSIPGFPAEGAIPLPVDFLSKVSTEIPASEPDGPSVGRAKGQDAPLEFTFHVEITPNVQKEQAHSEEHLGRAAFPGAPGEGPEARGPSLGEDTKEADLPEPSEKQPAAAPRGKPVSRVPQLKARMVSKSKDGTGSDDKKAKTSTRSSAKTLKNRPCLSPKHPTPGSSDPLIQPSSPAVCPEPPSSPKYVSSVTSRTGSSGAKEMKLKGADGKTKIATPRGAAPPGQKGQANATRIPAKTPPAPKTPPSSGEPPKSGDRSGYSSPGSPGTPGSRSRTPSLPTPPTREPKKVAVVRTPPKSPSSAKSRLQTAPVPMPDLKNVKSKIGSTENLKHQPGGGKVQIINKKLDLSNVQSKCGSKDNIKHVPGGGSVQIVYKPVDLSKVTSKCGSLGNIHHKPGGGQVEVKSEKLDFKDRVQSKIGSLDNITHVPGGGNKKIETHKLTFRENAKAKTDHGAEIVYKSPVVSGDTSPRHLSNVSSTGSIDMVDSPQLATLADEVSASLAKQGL
Assay: qHTS for Inhibitors of Tau Fibril Formation, Thioflavin T Binding; also: nearly all actives have a fitted effect of over 55% in size
Details: recombinant tau K18 P301L (four-repeat tau fragment), heparin-induced fibrillization, ThT fluorescence; series mostly up to 57.4 µM
Procedure, shortened: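 Aggregation was driven by heparin (20 uM final) acting on recombinant tau […] bearing P301L in 100 mM sodium acetate pH 7; fibrils were detected with Thioflavin T.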
% is scaled to controls: 0 for no effect and ±100 for the full control effect; potency is read from the fitted curve at half-maximal effect; tags tell the direction and shape of the fitted curve.

| SMILES | Potency | activity, negative = inhibition |
| --- | --- | --- |
| COCCNC(=O)c1c(NC(=O)c2ccc(Br)o2)n(Cc2ccccc2)c2nc3ccccc3nc12 | inconclusive: 28.2 µM [inhibitor, single point] |  |
| Nc1c([N+](=O)[O-])cc(F)c(N2CCNCC2)c1Br | inconclusive: 28.2 µM [inhibitor, single point] |  |
| N[C@@H](Cc1c[nH]c2ccccc12)c1nnc(SCc2ccc(Cl)cc2)o1 | inconclusive: 22.4 µM [inhibitor, partial curve] |  |
| COCCCn1c(N)c(C(=O)OCCOC)c2nc3ccccc3nc21 | inactive |  |
| CCOc1ccccc1C1SCC(=O)Nc2c1c(=O)[nH]n2C(CC)CC (stereo not given) | inactive |  |
| COc1ccccc1C1=NOC(COC(=O)c2ccc([N+](=O)[O-])cc2)C1 (stereo not given) | inconclusive: 1.26 µM [inhibitor, full curve] |  |
| Brc1c(NC2=NCCN2)ccc2nccnc12 | inactive and inconclusive: 39.8 µM [inhibitor, single point] and inconclusive: 22.4 µM [inhibitor, single point] |  |
| COc1ccc(C(=O)C2CCCN(Cc3ccccn3)C2)c(OC)c1 (stereo not given) | inactive |  |
| O=C(CN1CC=C(c2ccccc2)CC1)Nc1cc(Cl)ccc1Cl | inconclusive: 10 µM [inhibitor, partial curve] |  |
| CC(=O)Nc1ccc(NC(=O)Oc2ccccc2)cc1 | inconclusive: 22.4 µM [inhibitor, single point] |  |
| COC[C@H]1OC(=O)c2coc3c2[C@@]1(C)C1=C(C3=O)[C@H]2CCC(=O)[C@@]2(C)C[C@H]1OC(C)=O | active: 14.1 µM |  |
| O=C(Nc1ccc(F)c([N+](=O)[O-])c1)c1cccn(Cc2ccccc2)c1=O | inconclusive: 3.16 µM [inhibitor, partial curve, poor fit] |  |
| O=c1[nH]c(=O)n(-c2ccc(Cl)cc2)c(O)c1C=Nc1ccc(S(=O)(=O)Nc2nccs2)cc1 | inactive |  |
| Cc1cccc(N2C(=O)NC(=O)/C(=C\c3ccc4c(c3)CCCN4Cc3ccccc3)C2=O)c1 | inconclusive: 17.8 µM [inhibitor, partial curve] |  |
| OCC[n+]1c2ccccc2nc2ccc(N3CCOCC3)cc21 | inconclusive: 17.8 µM [inhibitor, partial curve] |  |
| COC(=O)NC/C=C\c1nc(CC/C=C\C(=O)O[C@H]2C[C@H]3CC(=O)O[C@@H](/C=C\CC(C)C)C[C@@H]4CC[C@H](C)[C@H](C[C@@H](OC)C[C@H](C2)O3)O4)co1 |  | inactive: 3.8% [at 11.5 µM] |
| C=CCn1c(O)c(C(C)=NCCN2CCCCC2)c(=O)[nH]c1=O | inconclusive: 39.8 µM [inhibitor, partial curve] |  |
| COC(=O)C1CN(C#N)N(c2ccc(Cl)cc2)C12c1ccccc1-c1ccccc12 (stereo not given) | active: 10 µM |  |
| O=C(O)Cn1cc(/C=C2\C(=O)NC(=O)N(Cc3ccco3)C2=O)c2ccccc21 | inconclusive: 17.8 µM [inhibitor, partial curve] |  |
| N#C/C(=C\c1ccc(O)c(O)c1)C(=O)NCCCNC(=O)/C(C#N)=C/c1ccc(O)c(O)c1 | active: 10 µM |  |

| SMILES | Potency | activity, negative = inhibition |
| --- | --- | --- |
| CCOP(=S)(OCC)Oc1nc(Cl)c(Cl)cc1Cl | inconclusive: 14.1 µM [inhibitor, partial curve] |  |
| COc1ccc(CCNC(=O)c2c(N)n(CCN3CCOCC3)c3nc4ccccc4nc23)cc1OC | inconclusive: 25.1 µM [inhibitor, partial curve] |  |
| Cc1cc(OC(=O)c2cccs2)c2c3c(c(=O)oc2c1)CCCC3 | inconclusive: 39.8 µM [inhibitor, single point] |  |
| COc1ccc(CN2C(=O)NC(=O)/C(=C/c3ccc([N+](=O)[O-])o3)C2=O)cc1 | active: 8.91 µM |  |
| Cc1ccc(-n2c(=O)[nH]c3ccc(Br)cc3c2=O)cc1 | inactive |  |
| Cc1ccc(/C=C2\C(=O)NC(=O)N(CCc3ccc(F)cc3)C2=O)o1 | inconclusive: 15.8 µM [inhibitor, partial curve] |  |
| CCN(CC)S(=O)(=O)c1ccc(N=Cc2c(O)n(-c3ccccc3)c(=O)[nH]c2=O)cc1 | inconclusive: 14.1 µM [inhibitor, partial curve, poor fit] |  |
| COc1ccc(C2SCC(=O)Nc3c2c(C)nn3C2CCOC(C)(C)C2)cc1OC (stereo not given) | inconclusive: 15.8 µM [inhibitor, single point] |  |
| Cc1nonc1OCCNCCNc1ccc([N+](=O)[O-])c2cccnc12 | inconclusive: 17.8 µM [inhibitor, partial curve] |  |
| O=C1NO[C@@H]2CN[C@@H](C(=O)O)[C@H]12 | inactive |  |
| Nc1ccc(Oc2cccc(Oc3ccc(N)cc3)c2)cc1 | inconclusive: 25.1 µM [inhibitor, partial curve] |  |
| O=C1NC(=O)C(=Cc2ccc(OCCOc3ccc([N+](=O)[O-])cc3)cc2)C(=O)N1 | inconclusive: 5.01 µM [inhibitor, partial curve] |  |
| Clc1ccc(C(c2ccc(Cl)cc2)n2cc[n+](CC(OCc3ccc(Cl)cc3Cl)c3ccc(Cl)cc3Cl)c2)cc1 (stereo not given) | inconclusive: 10 µM [inhibitor, partial curve] |  |
| CC(CO)NC(=O)C1C=C2c3cccc4[nH]cc(c34)CC2N(C)C1 (stereo not given) | inconclusive: 12.6 µM [inhibitor, partial curve] |  |
| COC(=O)c1cc2c(cn1)[nH]c1ccccc12 | inconclusive: 0.0631 µM [inhibitor, full curve, poor fit] |  |
| O=[N+]([O-])c1ccc(N2CCCNCC2)c2ncccc12 | inconclusive: 15.8 µM [inhibitor, partial curve] |  |
| Cc1cccc(-n2nc(C)c(C(=O)N3CCN(c4ccccc4)CC3)c2-n2cccc2)c1 | inconclusive: 31.6 µM [inhibitor, single point] |  |
| C=C(C)C1Cc2c(ccc3c2OC2COc4cc(OC)c(OC)cc4C2C3=O)O1 (stereo not given) | inconclusive: 11.2 µM [inhibitor, partial curve] |  |
| COc1ccc(CCN)cc1O | inactive |  |
| CCN(CC)c1ccc(C=C2C(=O)N(C)C(=S)N(C)C2=O)o1 | active: 10 µM |  |

— PubChem BioAssay AID1460 (National Center for Advancing Translational Sciences (NCATS), 2008)
